Experimental data: publication PMC12820563, “FoxP3 forms a head-to-head dimer in vivo and stabilizes its multimerization on adjacent microsatellites”
The other results are listed elsewhere or left out.

These sequences were tested against T1, MBP-FoxP1dN (Mus musculus, UniProt P58462 326-579) (assay: PD-seq (MBP pull-down with sequencing); 20 mM Tris-HCl pH 7.5, 100 mM NaCl, 1.5 mM MgCl2, 0.4 uM protein, 0.1 uM dsDNA library, 30 min, room temperature, amylose pull-down; high values mean tight binding). Conditions: protein: recombinant; tags: His6-MBP; chain copies: 2; dsDNA, one strand shown.
T1 sequence: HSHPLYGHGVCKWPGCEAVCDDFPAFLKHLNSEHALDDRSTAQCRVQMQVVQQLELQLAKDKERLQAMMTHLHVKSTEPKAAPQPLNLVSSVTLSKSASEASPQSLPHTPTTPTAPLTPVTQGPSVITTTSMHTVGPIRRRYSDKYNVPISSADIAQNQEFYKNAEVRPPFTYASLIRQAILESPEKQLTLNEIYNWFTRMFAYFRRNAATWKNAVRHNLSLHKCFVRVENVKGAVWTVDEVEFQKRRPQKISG
In short: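 E. coli-expressed mouse FoxP3 or FoxP1 fragment, N-terminus removed and tagged with His6-MBP, was used at 0.4 µM against 0.1 µM of a Klenow-filled degenerate double-stranded DNA library. After 30 min at room temperature in Tris pH 7.5 buffer with NaCl and MgCl2, complexes were pulled down on amylose resin and washed three times. Binding is pull-down over input reads-per-million enrichment from pooled replicates of the proteinase K-released, PCR-barcoded, Illumina-sequenced DNA.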

| Sequence | binding signal |
| --- | --- |
| GATGATTGTTCTCCCAGCTGATGAATTACCCTATTCGAGTAAACAAATTTTCCTAATCTTTCTGTTCAAGCGCCATCTAC | 1 RPM ratio (pull-down/input) |
| GATGATTGTTCTCCCAGCTGATGAATTCCGGGAATCGAGTAAACAAATTTTCCTAATCTTTCTGTTCAAGCGCCATCTAC | 0.923 RPM ratio (pull-down/input) |
| GATGATTGTTCTCCCAGCTGATGAATTCGTCGCGTCGAGTAAACAAATTTTCCTAATCTTTCTGTTCAAGCGCCATCTAC | 0.904 RPM ratio (pull-down/input) |
| GATGATTGTTCTCCCAGCTGATGAATTGCCCTGCTCGAGTAAACAAATTTTCCTAATCTTTCTGTTCAAGCGCCATCTAC | 0.823 RPM ratio (pull-down/input) |
| GATGATTGTTCTCCCAGCTGATGAATTAGCAGAATCGAGTAAACAAATTTTCCTAATCTTTCTGTTCAAGCGCCATCTAC | 0.993 RPM ratio (pull-down/input) |
| GATGATTGTTCTCCCAGCTGATGAATTGTATGGCTCGAGTAAACAAATTTTCCTAATCTTTCTGTTCAAGCGCCATCTAC | 0.905 RPM ratio (pull-down/input) |
| GATGATTGTTCTCCCAGCTGATGAATTCATACAATCGAGTAAACAAATTTTCCTAATCTTTCTGTTCAAGCGCCATCTAC | 1.26 RPM ratio (pull-down/input) |
| GATGATTGTTCTCCCAGCTGATGAATTCTTCTGGTCGAGTAAACAAATTTTCCTAATCTTTCTGTTCAAGCGCCATCTAC | 0.855 RPM ratio (pull-down/input) |
| GATGATTGTTCTCCCAGCTGATGAATTATCCAGTTCGAGTAAACAAATTTTCCTAATCTTTCTGTTCAAGCGCCATCTAC | 0.843 RPM ratio (pull-down/input) |
| GATGATTGTTCTCCCAGCTGATGAATTCTACGGTTCGAGTAAACAAATTTTCCTAATCTTTCTGTTCAAGCGCCATCTAC | 0.799 RPM ratio (pull-down/input) |
| GATGATTGTTCTCCCAGCTGATGAATTACTCCGGTCGAGTAAACAAATTTTCCTAATCTTTCTGTTCAAGCGCCATCTAC | 0.841 RPM ratio (pull-down/input) |
| GATGATTGTTCTCCCAGCTGATGAATTGCGGGAATCGAGTAAACAAATTTTCCTAATCTTTCTGTTCAAGCGCCATCTAC | 1.12 RPM ratio (pull-down/input) |
| GATGATTGTTCTCCCAGCTGATGAATTCCCTTCCTCGAGTAAACAAATTTTCCTAATCTTTCTGTTCAAGCGCCATCTAC | 0.831 RPM ratio (pull-down/input) |
| GATGATTGTTCTCCCAGCTGATGAATTAAGTGAATCGAGTAAACAAATTTTCCTAATCTTTCTGTTCAAGCGCCATCTAC | 1 RPM ratio (pull-down/input) |
| GATGATTGTTCTCCCAGCTGATGAATTCACATCTTCGAGTAAACAAATTTTCCTAATCTTTCTGTTCAAGCGCCATCTAC | 0.854 RPM ratio (pull-down/input) |
| GATGATTGTTCTCCCAGCTGATGAATTGCGCCTTTCGAGTAAACAAATTTTCCTAATCTTTCTGTTCAAGCGCCATCTAC | 1.13 RPM ratio (pull-down/input) |
| GATGATTGTTCTCCCAGCTGATGAATTTGCGTGATCGAGTAAACAAATTTTCCTAATCTTTCTGTTCAAGCGCCATCTAC | 1.08 RPM ratio (pull-down/input) |
| GATGATTGTTCTCCCAGCTGATGAATTGACTACTTCGAGTAAACAAATTTTCCTAATCTTTCTGTTCAAGCGCCATCTAC | 1.04 RPM ratio (pull-down/input) |
| GATGATTGTTCTCCCAGCTGATGAATTCAATATGTCGAGTAAACAAATTTTCCTAATCTTTCTGTTCAAGCGCCATCTAC | 1 RPM ratio (pull-down/input) |
| GATGATTGTTCTCCCAGCTGATGAATTAAGATTATCGAGTAAACAAATTTTCCTAATCTTTCTGTTCAAGCGCCATCTAC | 0.971 RPM ratio (pull-down/input) |

| Sequence | binding signal |
| --- | --- |
| GATGATTGTTCTCCCAGCTGATGAATTCCGTAAATCGAGTAAACAAATTTTCCTAATCTTTCTGTTCAAGCGCCATCTAC | 1.2 RPM ratio (pull-down/input) |
| GATGATTGTTCTCCCAGCTGATGAATTTAACGGTTCGAGTAAACAAATTTTCCTAATCTTTCTGTTCAAGCGCCATCTAC | 0.925 RPM ratio (pull-down/input) |
| GATGATTGTTCTCCCAGCTGATGAATTGATGCATTCGAGTAAACAAATTTTCCTAATCTTTCTGTTCAAGCGCCATCTAC | 1.74 RPM ratio (pull-down/input) |
| GATGATTGTTCTCCCAGCTGATGAATTTAGAGTATCGAGTAAACAAATTTTCCTAATCTTTCTGTTCAAGCGCCATCTAC | 1.02 RPM ratio (pull-down/input) |
| GATGATTGTTCTCCCAGCTGATGAATTACCTTTGTCGAGTAAACAAATTTTCCTAATCTTTCTGTTCAAGCGCCATCTAC | 0.991 RPM ratio (pull-down/input) |
| GATGATTGTTCTCCCAGCTGATGAATTGGAGACCTCGAGTAAACAAATTTTCCTAATCTTTCTGTTCAAGCGCCATCTAC | 0.734 RPM ratio (pull-down/input) |
| GATGATTGTTCTCCCAGCTGATGAATTGTTTCAGTCGAGTAAACAAATTTTCCTAATCTTTCTGTTCAAGCGCCATCTAC | 1.18 RPM ratio (pull-down/input) |
| GATGATTGTTCTCCCAGCTGATGAATTATCAGTTTCGAGTAAACAAATTTTCCTAATCTTTCTGTTCAAGCGCCATCTAC | 0.957 RPM ratio (pull-down/input) |
| GATGATTGTTCTCCCAGCTGATGAATTGTAACCATCGAGTAAACAAATTTTCCTAATCTTTCTGTTCAAGCGCCATCTAC | 1.14 RPM ratio (pull-down/input) |
| GATGATTGTTCTCCCAGCTGATGAATTGACCTAGTCGAGTAAACAAATTTTCCTAATCTTTCTGTTCAAGCGCCATCTAC | 0.889 RPM ratio (pull-down/input) |
| GATGATTGTTCTCCCAGCTGATGAATTAGAAAGTTCGAGTAAACAAATTTTCCTAATCTTTCTGTTCAAGCGCCATCTAC | 0.938 RPM ratio (pull-down/input) |
| GATGATTGTTCTCCCAGCTGATGAATTACGAAATTCGAGTAAACAAATTTTCCTAATCTTTCTGTTCAAGCGCCATCTAC | 1.05 RPM ratio (pull-down/input) |
| GATGATTGTTCTCCCAGCTGATGAATTATAGCCGTCGAGTAAACAAATTTTCCTAATCTTTCTGTTCAAGCGCCATCTAC | 0.907 RPM ratio (pull-down/input) |
| GATGATTGTTCTCCCAGCTGATGAATTGGAATCCTCGAGTAAACAAATTTTCCTAATCTTTCTGTTCAAGCGCCATCTAC | 0.79 RPM ratio (pull-down/input) |
| GATGATTGTTCTCCCAGCTGATGAATTCAAGTCATCGAGTAAACAAATTTTCCTAATCTTTCTGTTCAAGCGCCATCTAC | 0.923 RPM ratio (pull-down/input) |
| GATGATTGTTCTCCCAGCTGATGAATTTGCGAGATCGAGTAAACAAATTTTCCTAATCTTTCTGTTCAAGCGCCATCTAC | 0.953 RPM ratio (pull-down/input) |
| GATGATTGTTCTCCCAGCTGATGAATTAGCGCACTCGAGTAAACAAATTTTCCTAATCTTTCTGTTCAAGCGCCATCTAC | 0.88 RPM ratio (pull-down/input) |
| GATGATTGTTCTCCCAGCTGATGAATTGCACGATTCGAGTAAACAAATTTTCCTAATCTTTCTGTTCAAGCGCCATCTAC | 1.12 RPM ratio (pull-down/input) |
| GATGATTGTTCTCCCAGCTGATGAATTCATCTAGTCGAGTAAACAAATTTTCCTAATCTTTCTGTTCAAGCGCCATCTAC | 0.92 RPM ratio (pull-down/input) |
| GATGATTGTTCTCCCAGCTGATGAATTCCCCGGTTCGAGTAAACAAATTTTCCTAATCTTTCTGTTCAAGCGCCATCTAC | 0.786 RPM ratio (pull-down/input) |
